From PubChem BioAssay AID485360 (National Center for Advancing Translational Sciences (NCATS), 2010)
Screen size: about 230,000 compounds; about 1,500 (0.65%) were called active. The inconclusive results got no clear call from the source; some entries with a clear call stand among them for comparison. Calls come from the whole dose curve; as a rule, active = well fitted inhibition curve with a large enough effect; inconclusive = small, poorly fitted or top-dose-only effect; inactive = no such curve, though single readings can be large or run the other way. Potencies beside an inconclusive call are fits to weak or partial responses and may not hold up.

target: Lethal(3)malignant brain tumor-like protein 1 (Homo sapiens) (UniProt Q9Y468); assay: qHTS Assay for the Inhibitors of L3MBTL1; conditions: AlphaScreen L3MBTL1–H3K9me1 peptide binding; series mostly up to 57.1 µM; note: nearly all actives have a fitted effect of over 60% in size
Summary of the method: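 L3MBTL1 50 nM + b-AHA-H3(1-15)K9me1 75 nM, 30 min RT; compound added, 30 min RT; streptavidin donor/Ni-chelate acceptor beads 10 ug/mL each final, 30 min RT dark; AlphaScreen read.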
Potency is the fitted concentration of half-maximal effect; tags give direction and shape of the fitted curve.

UniProt Q9Y468, sequence (Q9Y468 whole entry, looked up): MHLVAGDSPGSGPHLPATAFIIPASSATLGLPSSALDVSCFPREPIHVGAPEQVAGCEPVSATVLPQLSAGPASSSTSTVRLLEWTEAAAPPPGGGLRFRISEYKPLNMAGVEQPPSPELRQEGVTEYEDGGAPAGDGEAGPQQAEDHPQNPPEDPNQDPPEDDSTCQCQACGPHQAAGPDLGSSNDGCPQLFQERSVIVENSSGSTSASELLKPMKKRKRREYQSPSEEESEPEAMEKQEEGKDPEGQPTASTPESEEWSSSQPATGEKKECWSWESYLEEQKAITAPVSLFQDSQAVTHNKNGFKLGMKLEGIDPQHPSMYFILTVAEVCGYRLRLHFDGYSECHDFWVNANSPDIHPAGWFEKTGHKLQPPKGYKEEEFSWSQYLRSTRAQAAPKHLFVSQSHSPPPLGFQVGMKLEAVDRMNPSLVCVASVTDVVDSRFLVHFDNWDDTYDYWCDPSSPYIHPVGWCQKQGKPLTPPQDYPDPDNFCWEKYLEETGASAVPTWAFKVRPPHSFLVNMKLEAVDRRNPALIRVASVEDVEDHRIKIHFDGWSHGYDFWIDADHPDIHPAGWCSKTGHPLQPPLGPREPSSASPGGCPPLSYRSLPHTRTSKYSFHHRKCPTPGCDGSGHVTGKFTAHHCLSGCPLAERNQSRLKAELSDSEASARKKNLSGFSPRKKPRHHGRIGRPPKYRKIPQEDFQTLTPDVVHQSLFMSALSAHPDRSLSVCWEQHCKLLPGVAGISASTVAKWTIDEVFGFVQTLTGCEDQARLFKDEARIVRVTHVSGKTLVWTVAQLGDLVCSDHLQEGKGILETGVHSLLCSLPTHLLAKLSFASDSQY

Structure (SMILES) | Potency
Nc1cc2nc3ccccc3oc-2cc1=O | inconclusive: 15.8 µM [inhibitor, partial curve]
CC(=O)N1N=C(c2ccc(C)o2)CC1c1ccc(F)cc1 (stereo unspecified) | inconclusive: 6.31 µM [inhibitor, single point]
O=C(Cn1c2ccc(F)cc2c2nc3n(c(=O)c21)CCS3)Nc1ccccc1C(F)(F)F | inconclusive: 0.355 µM [inhibitor, full curve]
COc1ccc(NS(=O)(=O)c2ccc(O)c(C(=O)OCC(=O)N3CC(C)OC(C)C3)c2)cc1 (stereo unspecified) | inactive
CS(=O)(=O)c1ccc2nc(NC(=O)CCC(=O)c3cccs3)sc2c1 | inconclusive: 22.4 µM [inhibitor, single point]
CC(=O)N1C(C)(C)CC(=NOC(=O)c2ccccc2)CC1(C)C | inconclusive: 25.1 µM [inhibitor, single point]
c1coc(-c2nc3ccccc3nc2-c2ccco2)c1 | active: 31.6 µM
O=C(Nc1ccc2[nH]c(=O)[nH]c2c1)c1c(F)c(F)c(F)c(F)c1F | inconclusive: 6.31 µM [inhibitor, single point]
C=CCn1c(SCC(=O)Nc2sc3c(c2C#N)CCC(C)C3)nc2cc(C(=O)O)ccc2c1=O (stereo unspecified) | inconclusive: 39.8 µM [inhibitor, single point]
O=C(/C=C/c1ccc(O)c(O)c1)c1ccc(S(=O)(=O)N2CCCCCC2)cc1 | inconclusive: 14.1 µM [inhibitor, partial curve]
CC(=O)Nc1ccc(S(=O)(=O)N(C)C2CCN(C)CC2)cc1 | inconclusive: 25.1 µM [inhibitor, single point]
Cc1cccc(N=Nc2cn[nH]c2-c2ccco2)c1 | inconclusive: 3.98 µM [inhibitor, full curve]
CCCc1nc2c(=O)n(C)c(=O)nc-2n(C)n1 | inconclusive: 5.62 µM [inhibitor, partial curve, poor fit]
CCc1nc2ccccc2n1CC(=O)Nc1cc(C)on1 | inconclusive: 0.0355 µM [inhibitor, full curve, poor fit]
CCNC(=O)Cn1cc(C(F)(F)F)cc(Cl)c1=O | inactive
CC(C)(C#N)Nn1cnnc1 | inconclusive: 3.55 µM [inhibitor, full curve, poor fit]
CCOC(=O)c1c(NC(=O)c2cc(-c3ccc(O)cc3)on2)sc(C(C)=O)c1C | inactive
Cc1ccc(N=C2NC(=O)/C(=C/c3cccn3C)S2)c(C)c1 | inconclusive: 6.31 µM [inhibitor, partial curve]
CCOCCCNc1nc2nc3ccc(C)cn3c(=O)c2cc1C(=O)NCC1CCCO1 (stereo unspecified) | inconclusive: 5.01 µM [inhibitor, full curve, poor fit]
Cc1cc(OCC(=O)N2CCC(C(=O)O)CC2)c2c(C)c(C)c(=O)oc2c1 | inactive
CCOC(=O)C(=O)C1=C(N2CCOCC2)/C(=C\c2cccc([N+](=O)[O-])c2)CC1 | inconclusive: 39.8 µM [inhibitor, single point]
Clc1ccc(CCNc2ncnc3nc[nH]c23)cc1 | inconclusive: 39.8 µM [inhibitor, single point]
CC(C)c1csc(CN2CCC(CO)(Cc3cccc(F)c3)CC2)n1 | inactive

Structure (SMILES) | Potency
Cc1c(C(=O)N2CCc3ccccc32)oc2ccccc12 | inactive
Brc1ccc(CSc2ccc3nnc(-c4ccccn4)n3n2)cc1 | inconclusive: 5.01 µM [inhibitor, full curve]
COc1ccc(CN2C(=O)c3cccnc3C2Nc2cc(Cl)ccc2OC)cc1 (stereo unspecified) | inconclusive: 28.2 µM [inhibitor, single point]
Cc1ccc(-c2cn3cccnc3n2)cc1NC(=O)c1ccc(Br)o1 | inactive
C/C(=N\NC(=S)NC(C)C)c1ccc(C(C)(C)C)cc1 | inconclusive: 22.4 µM [inhibitor, single point]
Cc1ccc(-n2ncc3c(=O)[nH]c(SCC(=O)N4CCCc5ccccc54)nc32)cc1 | inconclusive: 0.708 µM [inhibitor, single point]
CC1CN(C(=O)CCn2c(=O)oc3ccccc32)CC(C)O1 (stereo unspecified) | inconclusive: 44.7 µM [inhibitor, partial curve, poor fit]
O=C1c2ccccc2C(=O)C12OC2c1cccc2ccccc12 (stereo unspecified) | active: 14.1 µM
CS(=O)(=O)N(Cc1ccccc1)c1ccc(C(=O)NCCSCc2ccco2)cc1 | inconclusive: 35.5 µM [inhibitor, partial curve]
CCOC(=O)c1c(C)[nH]c(=S)c(C#N)c1-c1ccc(Cl)cc1 | inactive
CCC(C)NCCOCCOc1ccc(C)cc1OC (stereo unspecified) | inactive
COCCN1C(=O)c2oc3ccccc3c(=O)c2C1c1ccc(O)c(OC)c1 (stereo unspecified) | inconclusive: 35.5 µM [inhibitor, single point]
Cc1ccc2sc(N(CCCN(C)C)C(=O)c3ccc(S(=O)(=O)N(C)C4CCCCC4)cc3)nc2c1C | inactive
Cc1ccc(NC(=O)c2sc3nc(CCl)[nH]c(=O)c3c2C)c(C)c1 | inactive
Cc1cc(Cl)c(OCCCNC2CCCC2)c(Br)c1 | inactive
CCCCN1C(=O)/C(=C/C=C2\Oc3ccccc3N2CC)SC1=S | inactive
O=C(Nc1cc(Cl)cc(Cl)c1)N1CCCC1 | inactive
O=C(NCCCn1ccnc1)C(Cc1ccccc1)N1C(=O)c2ccccc2C1=O (stereo unspecified) | inactive
CC1CCCCN1CC(=O)Nc1ccc(N2CCCCCC2)cc1 (stereo unspecified) | inconclusive: 8.91 µM [inhibitor, full curve]
Oc1c(C(Nc2cccc(C(F)(F)F)c2)c2cccnc2)ccc2cccnc12 (stereo unspecified) | inconclusive: 39.8 µM [inhibitor, single point]
O=C1C(Cl)=C(NCCCN2CCOCC2)C(=O)N1CCc1ccccc1 | inconclusive: 6.31 µM [inhibitor, partial curve]
CCOC(=O)c1c(C)nc(C)c2c(=O)oc3ccccc3c12 | inconclusive: 39.8 µM [inhibitor, single point]
CC1=[N+](C)c2c(ccc3cccnc23)C1(C)C | inconclusive: 7.94 µM [inhibitor, full curve, poor fit]
